Results: PubChem BioAssay AID1671188 (National Center for Advancing Translational Sciences (NCATS), 2021)
Among all 100,000 compounds or so, about 250 (0.25%) were called active. This list was built around the results that the source calls inconclusive (neither active nor inactive); the mix of calls is not that of the screen. Calls come from the whole dose curve; as a rule, active = well fitted inhibition curve with a large enough effect; inconclusive = small, poorly fitted or top-dose-only effect; inactive = flat fitted curve, though single readings scatter. Potencies of inconclusive entries are left out as doubtful fits.

These molecules were tested against Alanine aminotransferase 2 (Homo sapiens) (UniProt Q8TD30) (assay: Primary qHTS assay for inhibitors of Glutamate pyruvate transaminase 2 (GPT2)). Conditions: Recombinant GPT2, coupled pyruvate oxidase/HRP Amplex Red fluorescence; activity change, negative = inhibition: at 57.7 µM (top of the series) unless noted; series mostly up to 57.7 µM.
Summary of the method: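 Inhibition is scored from Amplex Red fluorescence generated when pyruvate oxidase and HRP act on pyruvate released by GPT2. Reactions contain 10ng/uL enzyme, 250uM a-KG and 2mM L-alanine and run 30 min at room temperature.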
% is set by controls: 0 for no effect and ±100 for the full control effect; potency is the fitted concentration of half-maximal effect; tags give direction and shape of the fitted curve.
Note: nearly all actives have a fitted effect of over 60% in size.

Chain of UniProt Q8TD30 (Q8TD30 whole entry, looked up): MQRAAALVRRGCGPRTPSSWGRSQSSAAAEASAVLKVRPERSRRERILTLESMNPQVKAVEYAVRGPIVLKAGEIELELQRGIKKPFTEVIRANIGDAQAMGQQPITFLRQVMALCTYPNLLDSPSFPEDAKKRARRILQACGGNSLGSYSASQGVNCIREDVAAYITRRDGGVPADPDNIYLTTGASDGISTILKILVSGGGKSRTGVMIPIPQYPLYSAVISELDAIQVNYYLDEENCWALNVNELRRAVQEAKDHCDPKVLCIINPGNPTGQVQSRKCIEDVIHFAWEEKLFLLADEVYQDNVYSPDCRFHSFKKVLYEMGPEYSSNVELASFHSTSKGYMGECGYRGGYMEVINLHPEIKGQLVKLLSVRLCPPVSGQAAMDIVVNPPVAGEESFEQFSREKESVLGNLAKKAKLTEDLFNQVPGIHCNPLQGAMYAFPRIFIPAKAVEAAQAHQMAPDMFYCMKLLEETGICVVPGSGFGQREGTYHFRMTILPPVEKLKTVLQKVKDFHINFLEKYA

Compound | Potency | activity change, negative = inhibition | outcome
Cc1cc(C)c(CNC(=O)c2nc(-c3cccnc3)cc3[nH]ccc23)c(=O)[nH]1 | inconclusive [inhibitor, partial curve] | – | –
COc1ccc(-c2ccc3nc(-c4cccc(Cl)c4)oc3c2)c(OC)c1OC | inconclusive [inhibitor, partial curve, poor fit] | – | –
COc1ccc(OC)c(S(=O)(=O)N2CCC(C(=O)N3CCCCCCNC(=O)CC3)CC2)c1 | – | inactive: 2.44% | –
Nc1ncnc2c1c(-c1ccc(Cl)cc1)nn2-c1cccc(-c2cnnn2Cc2cccc(-c3ccccc3)c2)c1 | – | inactive: -4.42% | –
COc1ccccc1CN1CCCC(CN(CCN(C)C)C(=O)c2cccnc2)C1 (stereo not drawn) | inconclusive [inhibitor, partial curve, poor fit] | – | –
COCCOC1CN(C2CCN(S(=O)(=O)c3ccccc3)CC2)C12CCCCC2 (stereo not drawn) | inconclusive [inhibitor, partial curve, poor fit] | – | –
COc1ccccc1-c1cc(C(=O)NCc2ccc(Cl)cc2)nn2cnnc12 | – | inactive: -11% [at 88.5 µM] | –
CC(C)n1cc2cc(C(=O)NCc3ccccc3F)sc2c1 | inconclusive [inhibitor, full curve, poor fit] | – | –
CCc1nn(-c2ccc(F)cc2)c(Oc2ccccc2)c1CCC(=O)N1CCCC1 | inconclusive [inhibitor, single point] | – | –
COc1ccc(CN2C[C@H]3CN(Cc4cc(OC)c(OC)c(OC)c4)CCN3C2=O)cc1 | inconclusive [inhibitor, single point] | – | –
OCc1cc(C(O)CNCCCCCCOCCCCc2ccccc2)ccc1O (stereo not drawn) | inconclusive [inhibitor, single point] | – | –
Cc1cnc(C(=O)N2CC[C@@H]3CN(Cc4ccccc4)[C@@H]3C2)cn1 | inconclusive [inhibitor, single point] | – | –
Cc1nn(C)c(C)c1CNC(=O)C1CC(=O)N(c2n[nH]c3cccc(F)c23)C1 (stereo not drawn) | – | – | inactive
Cc1cnc(-c2ccccc2)n1CCNS(=O)(=O)c1ccccc1 | – | inactive: 4.51% | –
CN1CCCCCCN(C(=O)Nc2ccc3c(c2)OCCO3)CCC1=O | – | inactive: -0.0677% | –
COCC1CN(Cc2ccc(Br)cc2)CC12CCNCC2 (stereo not drawn) | – | inactive: 4.52% | –
CC(C)c1noc(-c2cn(C3CCN(C(=O)c4cccc(N(C)C)c4)CC3)nn2)n1 | – | – | inactive
COCCN(Cc1ccncc1)C(=O)C1CCN(C(=O)C2CC2)CC1 | inconclusive [inhibitor, single point] | – | –
COc1cc2nc(N3CCN(C)CC3)nc(NC3CCN(Cc4ccccc4)CC3)c2cc1OC | – | inactive: -25.8% | –
C=CCNC(=O)[C@@H]1CCCN1[C@@H](C(=O)NC)c1ccccc1OC | inconclusive [inhibitor, full curve, poor fit] | – | –
Cc1ccc(C(=O)Nc2cc(C3CCCC3)nn2C)cc1 | – | inactive: -11.2% [at 88.5 µM] | –
CC(C)Cn1c(=O)c(C(=O)N2CCC(C#N)CC2)nc2cccnc21 | – | – | inactive [at 88.5 µM]
O=C(NC1CCN(C(=O)c2ccc(-c3cccs3)cc2)CC1)c1ccc(Cl)nc1 | – | inactive: -3.41% | –

Compound | Potency | activity change, negative = inhibition | outcome
O=C1C(N2CCN(S(=O)(=O)Cc3ccccc3F)CC2)CCN1CCc1ccccc1 (stereo not drawn) | inconclusive [inhibitor, single point] | – | –
c1cc(-c2nc3c(c(NCCCn4ccnc4)n2)CCNCC3)ccn1 | – | inactive: -10.8% | –
CNCC(=O)N1CCc2nc(N)nc(NCc3ccccc3F)c2CC1 | inconclusive [inhibitor, single point] | – | –
CN(c1ccccc1)c1cc(=O)c2ccnc(-c3ccncc3)c2o1 | – | inactive: -10.4% [at 88.5 µM] | –
COc1ccc(C(=O)N2CCCN(c3cc(-c4ccc(Br)cc4)[nH]n3)CC2)cc1F | inconclusive [inhibitor, single point] | – | –
CCOc1ccccc1C(=O)N[C@@H]1CN(Cc2cccnc2)C[C@H]1CN(C)C | inconclusive [inhibitor, single point] | – | –
COc1ccccc1OCC(=O)NC1CC(=O)N(Cc2ccccc2Cl)C1 (stereo not drawn) | inconclusive [inhibitor, single point] | – | –
O[C@@H]1C[C@@H](c2nc(-c3ccccc3)no2)N(Cc2cccc(OC(F)(F)F)c2)C1 | inconclusive [inhibitor, single point] | – | –
CC(C)C1=NOC2(CCN(Cc3ccc(C(F)(F)F)cc3)C2)C1 (stereo not drawn) | inconclusive [inhibitor, partial curve, poor fit] | – | –
Cc1nn(CCC#N)c(C)c1[C@@H]1C=C[C@@H](NC(=O)Nc2ccc(Cl)cc2)C1 | inconclusive [inhibitor, full curve, poor fit] | – | –
O=C(Nc1ccc(OC(F)(F)F)cc1)N[C@@H]1C=C(C(=O)N[C@H]2CCCNC2=O)C[C@@H](O)[C@@H]1O | inconclusive [inhibitor, single point] | – | –
COc1cc(F)ccc1-c1nccc2c(=O)cc(-c3cccnc3)oc12 | inconclusive [inhibitor, single point] | – | –
CN(Cc1cccc(C(F)(F)F)c1)Cc1ccnn1C | inconclusive [inhibitor, single point] | – | –
Cc1nc2c(c(-c3ccc(O)cc3)n1)CN(Cc1ccccc1OC(F)(F)F)CC2 | inconclusive [inhibitor, single point] | – | –
O=C(C1CCN(C(=O)N2CC3CC(C2)[C@H]2CCCC(=O)N2C3)CC1)N1CCN(c2ccccn2)CC1 (stereo partly drawn) | inconclusive [inhibitor, single point] | – | –
CC(=O)c1cccc(NC(=O)Cn2ccn3nc(-c4ccc(F)cc4)c(CO)c3c2=O)c1 | – | – | inactive
Cc1ccccc1-c1[nH]nc2ncc(-c3cccnc3)nc12 | inconclusive [inhibitor, full curve, poor fit] | – | –
COCC1CN(C)CC12CCN(C(=O)NC1CCCCC1)CC2 (stereo not drawn) | inconclusive [inhibitor, single point] | – | –
OC[C@@H](O)[C@@H](O[C@@H]1O[C@H](CO)[C@H](O)[C@H](O)[C@H]1O)[C@H](O)[C@@H](O)CO | inconclusive [inhibitor, single point] | – | –
COC1CCC12CCN(Cc1ccc(C)s1)CC2 (stereo not drawn) | inconclusive [inhibitor, partial curve, poor fit] | – | –
CC1CCN(C(=O)c2cn3ccnc(-c4ccc(F)cc4)c3n2)CC1 | inconclusive [inhibitor, single point] | – | –
COc1cc(OC)cc(C(=O)N2CCC3(CC2)NC(=O)N(c2cccc(Cl)c2)N3)c1 | inconclusive [inhibitor, partial curve, poor fit] | – | –
CCC(CC)CC1(C(=O)Nc2ccccc2SC(=O)C(C)C)CCCCC1 | – | – | inactive

Compound | Potency | activity change, negative = inhibition | outcome
CN(C)C[C@@H]1CN(Cc2ccncc2)C[C@H]1NC(=O)c1ccc(F)cc1 | inconclusive [inhibitor, single point] | – | –
COCCCNc1ncnc2c1CN(C1CCC1)C(=O)CN2C | inconclusive [inhibitor, single point] | – | –
OC1(CN2CCC(c3cc(Cc4ccccc4)[nH]n3)CC2)CNCCOC1 (stereo not drawn) | inconclusive [inhibitor, single point] | – | –
O=C(Nc1ncc(-c2cc(C(F)F)nn2-c2c(Cl)cccc2Cl)s1)C1CC1 | inconclusive [inhibitor, single point] | – | –
O=C(CN1CCCc2nc(C3CC3)ncc2C1=O)NCc1ccccn1 | – | – | inactive
O=C(c1ccccc1)N1CCC(C(=O)N2CCC(c3nc4ncccc4[nH]3)C2)CC1 (stereo not drawn) | – | – | inactive
CC(C)c1noc(C2CCCN2C(=O)c2cc(-c3cccs3)n(C)n2)n1 (stereo not drawn) | – | inactive: -11.5% | –
CCNC(=O)c1ccc(CC2CCN(C(C)=O)CC2)cc1 | – | inactive: -5.17% | –
CN1C(=O)CCC2(CNC(=O)c3ccncc3)CCCC=C12 (stereo not drawn) | – | inactive: -19.9% | –
O=C(Cc1cccc(Cl)c1)NC1CCN(c2cc(-c3cccs3)[nH]n2)C1 (stereo not drawn) | inconclusive [inhibitor, partial curve] | – | –
CCn1nccc1C(=O)N1CCC2(CC1)CN(C(C)=O)CC2COC (stereo not drawn) | – | inactive: 3.7% | –
C=CCCC(CN1CCOCC1)Oc1ccc(-c2ccccc2)nn1 (stereo not drawn) | inconclusive [inhibitor, partial curve, poor fit] | – | –
CNC(=O)[C@@H](c1ccccc1F)N1CCC[C@H]1C(=O)NC1CC1 | – | inactive: 1.62% [at 88.5 µM] | –
COC(=O)[C@@H]1Cc2ncn(Cc3ccc(OC)cc3)c2CN1S(=O)(=O)c1cccc2cccnc12 | – | inactive: -4% | –
FC(F)(F)c1ccc(CN2CCC3(CC2)CC(c2cccc(C(F)(F)F)c2)=NO3)cc1 | – | – | inactive
COc1ccc(CNC(=O)c2cc(-c3cncc(C)c3)ncc2-c2nccs2)nc1OC | inconclusive [inhibitor, single point] | – | –
COc1ccc(N2CCN(c3nc(C(=O)NCc4cccc(C)c4)cs3)CC2)cc1 | inconclusive [inhibitor, single point] | – | –
CCc1nnc(CN(C)C(=O)c2cnc(-c3ccc(C)cc3)[nH]c2=O)o1 | inconclusive [inhibitor, partial curve, poor fit] | – | –
CCc1ccccc1NC(=O)CC1CCN(c2ccnc(OC)n2)CC1 | inconclusive [inhibitor, full curve] | – | –
CCn1cc(S(=O)(=O)N2CCC(Oc3ccc(-c4noc(C5CC5)n4)cc3)C2)cn1 (stereo not drawn) | inconclusive [inhibitor, partial curve, poor fit] | – | –
COc1ccc(CN2C(=O)[C@H](OC)[C@@H]2C2=CCN(C(=O)C3CCCC3)CC2)cc1 | – | – | inactive
Fc1ccc(CN2CC[C@H](c3nc4cc(Cl)ccc4o3)C2)cc1F | inconclusive [inhibitor, single point] | – | –
